Measurements from PubChem BioAssay AID445 (National Center for Advancing Translational Sciences (NCATS), 2006).
About 40 (0.04%) of roughly 110,000 compounds were called active. The shares of active, inactive and inconclusive entries below differ from those in the screen. The call rests on the fitted dose curve; in most records, active means well fitted curve in the direction sought with a large enough effect in the signal ratio (not every such curve was filed as active); inconclusive means small, poorly fitted or top-dose-only effect, or a change in a side signal; inactive means flat fitted curve, though single readings scatter; the % refers to the signal ratio. Potencies of inconclusive entries are doubtful fits and often do not repeat.
Potency means the concentration at half of the fitted maximal effect.

Experiment: IkB Signaling;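 on IkBa stabilization activation: 0% = basal untreated cells and 100% = reference inhibitor full response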
Settings: ABC-DLBCL IkBa-CBG/CBR dual luciferase ratio (green luciferase fused to IkBa over red control in OCI-Ly3 lymphoma cells), 4 h; IkBa stabilization activation: at 57.1 µM (top of the series), scaled: untreated 0%, proteasome inhibitor 100% unless noted
Procedure, shortened: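 Luminescence ratio of IκBα-fused green versus native red beetle luciferase in OCI-Ly3 cells, 4 h post-doxycycline with compound; red signal alone, scaled from basal (0%) to zero light (-100%), flagged nonspecific or cytotoxic effects.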
For `Cc1oc2ccc(O)c(CN3CCCCCC3)c2c1C(=O)Nc1cccc(Cl)c1C`, the IkBa stabilization activation was inconclusive: 3.77% [signal inhibitor].
In the case of `Cn1c(=O)c2c(ncn2CCSS(=O)(=O)O)n(C)c1=O`, the IkBa stabilization activation is reported as inactive: 0.67% [at 11.4 µM, scaled: untreated 0%, proteasome inhibitor 100%].
In the case of `COc1cccc(-c2cc(C(F)(F)F)n3nc(N)nc3n2)c1`, the “IkBa stabilization activation” value is reported as inactive: -1.65%.
In the case of `Cc1nn2c(=O)cc(COC(=O)c3cccc(NC(=O)COc4ccc(C)c(C)c4)c3)nc2s1`, the Potency is reported as inconclusive: 25.1 µM [signal inhibitor, partial curve].
With `c1csc(-c2nn3c(C4COc5ccccc5O4)nnc3s2)c1` (configuration not stated) the IkBa stabilization activation was inconclusive: 12.2% [signal inhibitor].
With `CCSc1ncc(Cl)c(C(=O)N(Cc2ccccc2Cl)C2CCS(=O)(=O)C2)n1` (configuration not stated) the IkBa stabilization activation was inconclusive: -1.29% [signal inhibitor].
With `O=C(c1cccc(COc2ccc(Cl)cc2Cl)c1)N1CCN(c2ccccn2)CC1` the IkBa stabilization activation was inconclusive: -2.84% [signal inhibitor].
In the case of `CCN(CC)CCCNC(=O)c1ccc2c(c1)N(Cc1c(F)cccc1Cl)C(=O)c1ccccc1S2`, the IkBa stabilization activation is reported as inconclusive: 1.26% [signal inhibitor].
In the case of `O=C(NCCc1ccc(Cl)cc1)C(=O)NCC(c1ccco1)S(=O)(=O)c1cccs1` (configuration not stated), the IkBa stabilization activation is reported as inconclusive: 3.91% [signal inhibitor].
In the case of `COc1ccc(-c2cc(C(=O)NCc3cccs3)no2)cc1OC`, the “IkBa stabilization activation” value is reported as inactive: 3.2%.
With `COc1ccc(-c2nc(-c3ccncc3)no2)cc1OC` the IkBa stabilization activation was inconclusive: 3.18% [signal inhibitor].
In the case of `Cc1ccc(OCCSc2nc3ccc(NC(=O)c4ccc5c(c4)OCO5)cc3s2)cc1`, the IkBa stabilization activation is reported as inconclusive: -3.54% [signal inhibitor].
With `CCn1c(=O)c(C2=NS(=O)(=O)c3ccccc3N2)c(O)c2ccccc21` the Potency was inconclusive: 1.26 µM [signal inhibitor, full curve].
With `O=C(Nc1ccc(F)cc1)C1CCN(c2nc3ccccc3n3cccc23)CC1` the IkBa stabilization activation was inconclusive: 0.582% [signal inhibitor].
For `CCCc1ccc(OC(=O)CSc2nnc(-c3cccs3)o2)cc1`, the IkBa stabilization activation was inconclusive: 2.35% [signal inhibitor].
For `CCS(=O)(=O)N1CCc2cc(C(=O)Nc3cccc(C)c3C)ccc21`, the IkBa stabilization activation was inconclusive: -0.289% [signal inhibitor].
For `Cc1nc(-n2nc(C)c(Cc3ccccc3Cl)c2C)sc1C(=O)N1CCC(C)CC1`, the IkBa stabilization activation was inconclusive: -0.181% [signal inhibitor].
For `CCOC(=O)C(CC)Sc1ncnc2sc3c(c12)CCCC3` (configuration not stated), the IkBa stabilization activation was inconclusive: 14.5% [signal inhibitor].
For `COc1ccc(OCC(=O)N2CCN(C(=O)c3cc(OC)c(OC)c(OC)c3)CC2)cc1`, the IkBa stabilization activation was inconclusive: -3.68% [signal inhibitor].
In the case of `CCOc1ccc(C2N3CC4(C(C)C)CN2CC(C(C)C)(C3)C4=O)cc1OC` (configuration not stated), the IkBa stabilization activation is reported as inconclusive: 1.72% [signal inhibitor].
In the case of `c1ccc([C@@H]2CN3CCSC3=N2)cc1`, the IkBa stabilization activation is reported as “inactive”.
For `CCOc1nc(-c2ccc(C)cc2)ccc1-c1noc(COC)n1`, the “IkBa stabilization activation” value was inactive: -1.43%.
In the case of `CCOc1ccc(C2C=C(c3cccc(OC)c3)Nc3nnnn32)cc1` (configuration not stated), the “IkBa stabilization activation” value is reported as inactive: 1.85%.
For `CCN(C(=O)Cn1c(SCC(=O)Nc2ccc(OC)cc2)nc2ccccc21)c1cccc(C)c1`, the IkBa stabilization activation was inconclusive: 1.04% [signal inhibitor].
With `CC(C)(C)c1ccc(C(=O)NNc2ncnc3c2cnn3-c2ccccc2)cc1` the “IkBa stabilization activation” value was inactive: 1.01%.
For `O=C(COc1ccccc1)NCC(c1cccs1)S(=O)(=O)c1ccc(Cl)cc1` (configuration not stated), the IkBa stabilization activation was inconclusive: 3.91% [signal inhibitor].
For `Cc1cc(C)n2c(Nc3ccccc3C)c(-c3cccs3)nc2n1`, the IkBa stabilization activation was inconclusive: 13.4% [signal inhibitor].
For `COc1cccc(C(=O)Nc2ccc(-n3nncc3-c3ccc(Br)cc3)cc2)c1OC`, the IkBa stabilization activation was inconclusive: 0.8% [signal inhibitor].
With `Cc1ccc(S(=O)(=O)N(CC(O)Cn2c3ccccc3c3ccccc32)c2cccc(C(=O)N(C)C)c2)cc1` (configuration not stated) the IkBa stabilization activation was inconclusive: 9.28% [signal inhibitor].
In the case of `Cc1ccc(CN2C(=O)c3ccccc3Sc3ccc(C(=O)NCc4ccco4)cc32)cc1`, the IkBa stabilization activation is reported as inconclusive: 0.74% [signal inhibitor].
In the case of `CCC1=C(C[C@H]2NCCc3ccccc32)C[C@@H]2c3cc(OC)c(OC)cc3CCN2C1`, the IkBa stabilization activation is reported as inconclusive: 7.72% [signal inhibitor] [at 11.4 µM, scaled: untreated 0%, proteasome inhibitor 100%].
In the case of `Cc1ccc(Oc2nc3c(c(=O)n(Cc4ccccc4)c(=O)n3C)n2C)cc1C`, the IkBa stabilization activation is reported as inconclusive: 8.01% [signal inhibitor].
With `c1ccc(CCn2nnnc2C(c2cccs2)N2CCN(Cc3ccc4c(c3)OCO4)CC2)cc1` (configuration not stated) the IkBa stabilization activation was inconclusive: 5.36% [signal inhibitor].
For `CCN(C(=O)C1CCC(CNS(=O)(=O)c2cccc3nsnc23)CC1)c1ccccc1` (configuration not stated), the IkBa stabilization activation was inconclusive: -0.333% [signal inhibitor].
With `CCN(C(=O)C1CCC(CNS(=O)(=O)c2cccc3nsnc23)CC1)c1cccc(C)c1` (configuration not stated) the IkBa stabilization activation was inconclusive: 0.614% [signal inhibitor].
For `CC[C@]1(O)C[C@H]2CN(CCc3c([nH]c4ccccc34)[C@](C(=O)OC)(c3cc4c(cc3OC)N(C=O)[C@H]3[C@@](O)(C(=O)OC)[C@H](OC(C)=O)[C@@]5(CC)C=CCN6CC[C@]43[C@H]65)C2)C1`, the Potency was inconclusive: 0.794 µM [signal activator, full curve].
For `Cc1cc(C)cc(NC(=O)Cn2c(=O)n(C(C)C)c(=O)c3oc4ccccc4c32)c1`, the “IkBa stabilization activation” value was inactive: 0.987%.
In the case of `O=C(Cc1ccc(NC(=O)N2CCSc3ncccc32)cc1)NCc1ccccc1`, the IkBa stabilization activation is reported as inconclusive: -1.04% [signal inhibitor].
In the case of `COc1ccc(NC(=O)Nc2nnc(N3CCCCC3C)s2)cc1OC` (configuration not stated), the “IkBa stabilization activation” value is reported as inactive: -2.19%.
For `COc1cc(Nc2cc(C)nc3nc(C)nn23)cc(OC)c1OC`, the “IkBa stabilization activation” value was inactive: 1.25%.
For `COc1ccc2c(c1)CC(C(=O)NCCN1CCN(c3cccc(Cl)c3)CC1)CO2` (configuration not stated), the IkBa stabilization activation was inconclusive: 4.13% [signal inhibitor].
In the case of `O=C(c1ccc2c(c1)N(Cc1ccc(F)cc1)CCS2)N1CCN(c2ccccc2)CC1`, the IkBa stabilization activation is reported as inconclusive: -0.847% [signal inhibitor].
With `CCCN1C(=O)c2ccc(C(=O)Nc3nccs3)cc2C1=O` the “IkBa stabilization activation” value was inactive: -6.81%.
With `CCOC(=O)C1CCN(Cc2c(O)ccc3ccccc23)CC1` the IkBa stabilization activation was inconclusive: 11% [signal inhibitor].
With `c1ccc(-n2cnnc2SCc2nc3ccccc3s2)cc1` the IkBa stabilization activation was inconclusive: 7.73% [signal inhibitor].
For `Cc1ccc(CNC(=O)c2sc3nc4n(c(=O)c3c2C)CCCC4)cc1`, the IkBa stabilization activation was inconclusive: -1.95% [signal inhibitor].
For `Cc1nc(Oc2ccccc2C)c2oc3ccccc3c2n1`, the IkBa stabilization activation was inconclusive: 1.4% [signal inhibitor].
For `Cc1ccc2nc(-c3ccc(C)c(NC(=O)Cc4ccccc4)c3)oc2c1`, the “IkBa stabilization activation” value was inactive: -2.33%.
For `COc1ccc(N2CCN(CCCNC(=O)c3ccc4nc(CCc5ccccc5)oc4c3)CC2)cc1`, the IkBa stabilization activation was inconclusive: 1.28% [signal inhibitor].
In the case of `COc1ccc(NC(=O)CSc2c3c(nc4ccc(Cl)cc24)CCCC3)cc1Cl`, the Potency is reported as inconclusive: 7.94 µM [signal inhibitor, full curve].
In the case of `Cc1c(Cl)cccc1NC(=O)c1ccc(NC(=O)N2CCSc3ncccc32)cc1`, the IkBa stabilization activation is reported as inconclusive: -1.69% [signal inhibitor].
With `CCOC(=O)Cc1cnc(NC(=O)c2ccccc2)s1` the IkBa stabilization activation was inconclusive: 16.3% [signal inhibitor].
In the case of `COC(=O)COc1ccc2oc(-c3ccc(OC)cc3)cc(=O)c2c1`, the “IkBa stabilization activation” value is reported as inactive: 2.95%.
In the case of `COc1ccc(N2CCN(C(=O)c3cnn(-c4ccc(F)cc4)c3-n3cccc3)CC2)cc1`, the IkBa stabilization activation is reported as inconclusive: 0.298% [signal inhibitor].
With `CC(C)(C)c1onc(OCP(=O)(O)O)c1C[C@@H](N)C(=O)O` the “IkBa stabilization activation” value was inactive: 1.96%.
In the case of `O=C1CCCc2cc(S(=O)(=O)N3CCCC(C(=O)Nc4ccc(F)c(Cl)c4)C3)ccc2N1` (configuration not stated), the IkBa stabilization activation is reported as inconclusive: 2.18% [signal inhibitor].
For `CCOc1cc2[nH]c(=O)n(CCCCC(=O)N3CCN(c4ccc(OC)cc4)CC3)c(=O)c2cc1OCC`, the “IkBa stabilization activation” value was inactive: 0.539%.
With `CSc1cccc(Nc2cc(C(=O)NCCc3ccc(Cl)cc3)c3ccccc3n2)c1` the IkBa stabilization activation was inconclusive: -1.33% [signal inhibitor].
With `CC1CN(C(=O)N2CCC(C(=O)N3CCN(c4ccccc4)CC3)CC2)c2cc(Cl)ccc2O1` (configuration not stated) the IkBa stabilization activation was inconclusive: 3.25% [signal inhibitor].
With `CCOc1ccc2nc(N3CCC(C(=O)Nc4ccccc4CC)CC3)sc2c1` the IkBa stabilization activation was inconclusive: 5.76% [signal inhibitor].
For `CCN(CC)S(=O)(=O)c1ccc(Cl)c(C(=O)Nc2nnc(C)s2)c1`, the Potency was inconclusive: 12.6 µM [signal inhibitor, partial curve].
For `Cc1cc(N2CCCCC2)nc2ccc(NC(=O)/C=C/c3ccc(OC(C)C)cc3)cc12`, the IkBa stabilization activation was inconclusive: 9.08% [signal inhibitor].
With `O=c1oc2ccccc2c(O)c1/C=N/c1ncccn1` the Potency was inconclusive: 25.1 µM [signal inhibitor, partial curve].
For `Cc1ccc(NC(=O)c2cnc(N3CCCCC3)c3ccccc23)c(C)c1`, the Potency was inconclusive: 39.8 µM [signal activator].
With `CC(C)CC(=O)Nc1nc2nc(-c3ccccc3)cc(=O)n2[nH]1` the “IkBa stabilization activation” value was inactive: -0.375%.
In the case of `CCCCOc1ccc(C2=NC(c3cccs3)=Nc3ccc(CC)cc3N2)cc1`, the “IkBa stabilization activation” value is reported as inactive: -3.18%.
For `COC(=O)c1c(Oc2ccc(OC)cc2)nnc(-c2ccccc2)c1-c1ccccc1`, the IkBa stabilization activation was inconclusive: 1.5% [signal inhibitor].
